Source: the supplement of paper PMC11417369
The list shows a part of the results.

tested on: PfAP2-HC AP2 domain (GST-tagged); experiment: gcPBM binding intensity (ln(normalized median fluorescence intensity)); higher = stronger DNA binding
In short: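 GST-fused DNA-binding domains of P. falciparum, expressed in E. coli, were applied at about 25 μg on average for 1 h to an Agilent 4 × 180k array of primer-extended double-stranded 36-bp intergenic genomic probes and negative controls. Binding intensity is the highest Masliner-normalised natural-log median intensity across replicate spots of either probe orientation, measured with Alexa488 anti-GST antibody and a 488 nm scan.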

Sequence	gcPBM binding intensity (ln)
ATTTATTTCTTGTTAGTGCACTTTCTTTGGTAAAAT	9.63
TTAAAATGTTGTAACGTGCACATTTTGTGGAAATCA [GTGCAC_site9559]	9.52
ATATTTAGGAAAAATAGTACACATTTAAATAATAAT [XGTACX_site7989]	9.7
TAGGTGCCTTTTTTCACACACATGTCAACTAAATAT [CACACA_site2656]	10.1
AAATATATATATATATATATAAATATATACATATAT [TGCATGCA_negctrl_site517]	9.57
CTTTAAATTAATAAAAGTACATTATTTATATATTTT [XGTACX_site4808]	9.51
ATAACAAAAAAAAAGGTGCTACAAAATGAATAAAAA [GTGCAC_site9659]	9.83
ATATTTTATTTTAATACACACAAGTTATATAACCAC [CACACA_site6508]	9.77
TACATATATATATATGTACACACATTAATAAAAAAA [CACACA_site9058]	9.82
AATATAAATAATTATACACACTTAATATATATATAC [CACACA_site5533]	9.77
ATTTATGTTAATAAGTGTACAATAAATTTTTTTTAT [XGTACX_site7658]	9.51
AACATATATAAATACACACACATATATATATGAAAT [CACACA_site4312]	10.2
TATTAATTTAAATGGGTGCAAAACCTATATAAATAT	9.51
TTATTTTATTTTTGTGCACACTGATAAATTGAAAAG [CACACA_site2949]	9.73
TAAAAGTTCACCTGTACACACATATAAATATGTACA [CACACA_site6901]	9.77
CGTTTTCTATATCATTGTACATATTCATGTGTAAAT [XGTACX_site2741]	9.85
AACAGACGAAGACACACACACATATATATATATATA [CACACA_site1020]	10.2
ATTAATAAATTCAATTGTACTTGTTTATACATAAAA [XGTACX_site3733]	9.35
TTGTTTAAGTCACGAACACACATATATCATCAATTT [CACACA_site986]	9.81

Sequence	gcPBM binding intensity (ln)
GTTTGAATGGCGCACTGTACACATATATACATATAG [XGTACX_site8619]	10
ATTTATGAAAAATGTACACACATCAAATGCTTATAT [CACACA_site4068]	9.94
ACAAAATTATGTAGATGTACAGACATAGAAAGAGAT [XGTACX_site3096]	10.3
TTATGGTGCAACATTATGCACACCGTTAAATAACTA [CACACA_site3846]	9.48
ATTTATTTTGTTGTTGTTTTTATTTGATTGTTTTAT [CACACA_negctrl_site1275]	10.1
TTATGTGTATAGGTTTGTACATAAAATGATGTATAG [XGTACX_site1401]	9.68
TCATGGAATATTTAAAGTACAAAAAGTGTTCTTTAC [XGTACX_site715]	9.47
TAGTCATATATATATGTACACACATATATATATTTA [CACACA_site8413]	9.73
TATATATATATGTGTACACATGTCGCATTTTTTTAT [CACACA_site4648]	10.2
GATATTATAAAATAAAAATAAATCATTTCTATTCAT [CACACA_negctrl_site334]	9.49
ACATATATGGAGCTTATACACACTTTTATATTTTAA [CACACA_site3854]	9.67
TTATCATATAATTATTGTACTAAAAAAAAAGCGAGT [XGTACX_site3086]	9.62
TTTTAAATATGCCATACACACTACTCTATAATAAAT [CACACA_site6987]	9.7
ATATATTATGGGTGTGCACACAATATTTATATGTTC [CACACA_site2270]	10.4
TTATAATAAATATATAAAAAAAAAAAAAAAAAAAAA [CACACA_negctrl_site1639]	8.65
TGATAGCACCTTATATGTACATATAATATATTATTA [XGTACX_site837]	9.75
TTTTCTTATAAATGAAGTACAAAAAAAAAATATATA [XGTACX_site1352]	9.37
AAGGTATAATATATTTGTACATATACATTTTTGAAT [XGTACX_site6493]	9.73
TGAAAAATGTAATGCTCACACATATATATATATATA [CACACA_site5213]	9.62

Sequence	gcPBM binding intensity (ln)
GATTTTAATGGGTGTACACATTTATTTATATAAAGT [CACACA_site5317]	9.74
TAATATGTTTATGGTAACATACAAAAATGTATATAT [GTGCAC_negctrl_site204]	9.54
TATTTTTTATTTTAAATCCTCTGATATTTAATTTGT [TGCATGCA_negctrl_site84]	9.56
TATCCCCTTGTCCATATTAATTGTGACATCATATAT [XGTACX_negctrl_site9]	9.84
ATGTGTATATATATGTGTACATAATTTGTGTTATTC [XGTACX_site2509]	9.79
GTGTCTTTTATTAAATGTACATATTCATAGATAAAA [XGTACX_site8578]	9.44
TTATTTTTTTGGAATTCACACACAAAAAAAAAAATA [CACACA_site8650]	9.65
AATTGAGAAGTGTGTTGTACATAATGGCACATACCT [XGTACX_site1370]	9.82
TAGAATGAAAAAAAAGCATGCGGGCAAAAATTTTTA [TGCATGCA_site926]	9.82
ACCTTAAAAATAACTGCACACAAAAATAAATACCTT [CACACA_site8902]	10.2
ACGTAAACATGTAGAAGGCATTACACAATGGTATAC [TGCATGCA_negctrl_site512]	9.89
TTATGGTGCATGAAATCACACATTGATATATATGCT [CACACA_site5352]	9.62
ATATATATATATATATGTACATATATATATTATATT [XGTACX_site6303]	9.66
ACATTTAAATAATATGTGCACAGCTATATTTTCTTT [GTGCAC_site9562]	9.85
CTAATCGTGCACAACTGTACATTTGTCAAGGGCAAT [XGTACX_site8662]	9.62
ATAAAAATCTTTAGTAGTACATTATAAAAAACTATT [XGTACX_site5531]	9.44
TTTTTAATATATATCACACATATATATTTTTAATTA [CACACA_site6099]	9.5
ATGTGAACATTCAATGCACACGATGTAATTATACAT [CACACA_site15]	9.86
AACATATATTAGCTTACATGCAAAAAGTAAAAAAAT [TGCATGCA_site10]	9.74
